Laboratory results: PMC12040169 (PLOS Biology, 2025)
Like-named read-outs stand apart in the source and are kept apart here. Some of the results follow.

Test system: T1, C. trachomatis L2/434/Bu expressing GFP (CTL2-GFP)
T1 construct: L2/434/Bu GFP intracellular growth in HeLa cells
Set-up: species or system HeLa; C. trachomatis total inclusion area by high-content imaging, normalised to DMSO
Outline: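 Following bulk GFP and resorufin fluorescence reads, infected cells were fixed, Hoechst-stained and imaged on a high-content platform. Inclusion total area and number per well served as growth proxies; nuclei counts indicated host viability. MICs were derived as for the fluorescence assay.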

[1] = total inclusion area; 28.5 h, 10 µM; inhibitor

SMILES	% of control remaining [1]	% of control remaining (total inclusion area, 28.5 h, 10 µM, inhibitor)
Cc1ccc(-c2nc3cc(Cl)ccc3o2)cc1NC(=S)NC(=O)c1cccc(Cl)c1 [CBK264022]	76.8611	–
Nc1nc(NCCOc2ccccc2Cl)cc(C2CC(N)C2)n1 (stereo not drawn) [CBK306825]	46.7156	–
CC(C)CCNC(=O)c1c(O)c2ccccc2[nH]c1=O [CBK159975]	104.743	–
COc1cc(-c2ccc3ccc(N)nc3n2)cc(OC)c1OC [CBK061866]	129.037	–
CCc1cc(=O)[nH]c(-c2ccc(N3CC(C(N)=O)CCC3C)nc2)n1 (stereo not drawn) [CBK306448]	103.422	–
CC(C)CCn1c(=S)[nH]c2c(oc3ccccc32)c1=O [CBK288504]	98.9984	–
Cc1cc(Cl)cc(Br)c1OCCNCCN(C)C [CBK267791G]	66.4825	–
Cc1ccc(C(=O)O)cc1S(=O)(=O)N(CCO)CCO [CBK267335]	107.208	–
CC1CC(C)CN(C(=O)c2cc(S(=O)(=O)N3CCOCC3)ccc2Cl)C1 (stereo not drawn) [CBK305000]	40.3862	–
COCCCOc1cncc(NC(C)C)n1 [CBK115880]	107.485	–
COc1cc(-c2cnc3[nH]c(=O)n(C4CCOCC4)c3n2)cc(OC)c1OC [CBK064255]	120.428	–
O=C(O)C1C2C=CC(C2)C1C(=O)N1CCN(C(c2ccccc2)c2ccccc2)CC1 (stereo not drawn) [CBK262659]	101.131	–
COc1ccc2[nH]c3c(c2c1)CCN(S(C)(=O)=O)C31CCN(CCOc2ccccc2)C1 (stereo not drawn) [CBK063187T]	96.5007	–
Cn1nc(C(C)(C)C)cc1C(=O)N1CCNC(=O)C1Cc1ccccc1-c1ccc(F)cc1 (stereo not drawn) [CBK285830]	91.4794	–
Cc1cc2c(s1)c1cnn(Cc3cccnc3)c(=O)c1n2C [CBK284154]	108.266	–
Clc1ccc(COc2nccnc2OC2CCN(CC3CC3)CC2)cc1Cl [CBK083123]	–	111.977
CN1CCN(S(=O)(=O)c2ccc(Br)cc2C(F)(F)F)CC1 [CBK062437]	67.0821	–
Nc1ncc(-c2ccccc2)nc1NC1CCOCC1 [CBK063748]	140.343	–
CCOC1=NCCN2CCc3cccc1c32 [CBK023113]	78.2229	–
COc1cccc(-c2nccc3ccn(CC(=O)N4CC=CCC4)c23)c1 [CBK284806]	106.625	–
N#C/C(=C\c1cn(Cc2ccc(Cl)cc2Cl)nc1-c1ccccc1)c1nc2ccccc2[nH]1 [CBK262545]	98.8835	–

SMILES	% of control remaining [1]	% of control remaining (total inclusion area, 28.5 h, 10 µM, inhibitor)
N/C(=N\OC(=O)c1cccc(Br)c1)c1ccccc1 [CBK261703]	90.961	–
CCCN(C)Cc1ccc(-c2nnn(CC(=O)NCc3ccc(CC)cc3)n2)cc1NC(C)=O [CBK164703]	27.0796	–
Cc1nnc(SCC(=O)N/N=C/c2cc([N+](=O)[O-])ccc2O)n1-c1ccccc1 [CBK262768]	101.513	–
O=C(CCn1cnc2ccccc21)N1CCC(c2ccncc2)CC1 [CBK283522]	83.179	–
Cc1noc(C)c1C(=O)Nc1cnc(-c2ccc(F)cc2)c(-c2ccsc2)n1 [CBK036781]	85.0725	–
Cc1noc(C)c1C(=O)N1CCCCCC1c1c(Cl)cnn1C (stereo not drawn) [CBK284918]	108.862	–
c1ccc(CN2C[C@H]3CCc4c[nH]nc4[C@H]3C2)nc1 [CBK282108]	120.991	–
COc1ccc(C(C)c2cc3c(cc2N)OCO3)cc1 (stereo not drawn) [CBK200102T]	54.9286	–
CC(C)CC(NC(=O)c1ccccc1)C(=O)OCC(=O)Nc1nc2ccccc2s1 (stereo not drawn) [CBK085134]	103.875	–
COc1ccccc1CNC(=O)c1ccc2nc(C)c(N(C)C(=O)c3cccs3)n2c1 [CBK146546]	120.787	–
Cc1cc(NC(=O)C(C)(C)Oc2ccc(Cl)cc2)nc2c1c(=O)oc1ccccc12 [CBK291132]	100.871	–
O=C(COc1cccnc1)NCc1ccc(-c2csnn2)cc1 [CBK149312]	100.801	–
CS(=O)(=O)c1ccc(-c2ccnc3nc(N)ccc23)cc1 [CBK067648]	100.909	–
COc1ccc(C)cc1S(=O)(=O)n1ccc2c(OC3CCCN(C)C3)nccc21 (stereo not drawn) [CBK051582C]	120.343	–
CC(C)CC(NC(=O)C1CCC(C)CC1)C(=O)O (stereo not drawn) [CBK287212]	101.754	–
COc1ccc(C(=O)Nc2nc(-c3nc4ccccc4s3)cs2)cc1 [CBK287563]	118.219	–
Cc1ccc(NC(=O)N(Cc2ccccc2Br)CC(C)(C)CN)cc1[N+](=O)[O-] [CBK002436C]	40.4254	–
COc1ccc(C2N3CCCN2CC3)cc1 (stereo not drawn) [CBK067068]	70.3155	–
COc1ccc(C2=NN(c3ccccc3)C(c3cn(-c4ccccc4)nc3-c3ccccc3)C2)cc1 (stereo not drawn) [CBK263230]	91.4144	–
Cc1onc(-c2ccccc2)c1CNC(=O)c1ccco1 [CBK144074]	98.3174	–
Cc1cc(C(=O)NCc2cccnc2N(C)C2CCCCC2)nn1C [CBK306577]	74.0977	–

SMILES	% of control remaining [1]	% of control remaining (total inclusion area, 28.5 h, 10 µM, inhibitor)
COc1ccc([C@@]23CCCN(C(=O)Nc4ccc(C)c(F)c4)C[C@@H]2N(C)CC3)cc1OC [CBK056680T]	66.8881	–
COC(=O)C(NC(=O)c1cnc(-c2ccc(Cl)cc2)c(-c2ccc(O)cc2)c1)c1ccccc1 (stereo not drawn) [CBK036723]	100.629	–
COC(=O)c1ccc(C)c(NS(=O)(=O)c2cc(Cl)ccc2Cl)c1 [CBK077971]	96.9502	–
Cc1cccc(OCCn2c(SCCC(=O)O)nc3ccccc32)c1 [CBK264682]	100.357	–
C#CCNC(=O)CC[C@H]1CNC(=O)[C@@H]2[C@@H](CCN2Cc2ccc(C)cc2)N1C [CBK289036]	118.866	–
Cc1cc(CN(C)Cc2c(C)nn(-c3ccc(F)cc3)c2C)n[nH]1 [CBK281990]	103.402	–
Nc1cccc(-c2nccnc2NCCc2ccccn2)c1 [CBK037512]	85.3539	–
CC(C)N1CC[C@@H]2[C@H]1C(=O)NC[C@H](CCC(=O)Nc1ccccc1)N2C [CBK289030]	117.584	–
C[C@H](Nc1cncc(-c2cccc(C(=O)NCCO)c2)n1)c1ccccc1 [CBK066007]	87.9156	–
CCn1c(C)nc2cc(NC(=O)c3cnn(C)c3)ccc21 [CBK281837]	117.456	–
CC(C)NS(=O)(=O)c1ccc(NS(=O)(=O)c2ccc(F)c(C(=O)O)c2)cc1 [CBK297533]	83.4375	–
COc1cc(OC)nc(C(NC(=O)C2CCN(Cc3ccccc3F)CC2)c2ccc(Cl)cc2)n1 (stereo not drawn) [CBK148152]	77.6082	–
Cc1ccccc1C(=O)NC(=S)Nc1sc2c(c1C(N)=O)CCC2 [CBK262107]	91.7366	–
O=C(O)c1ccc(CSc2nnnn2-c2ccccc2)cc1 [CBK286726]	78.5677	–
COc1ccccc1CCCN1CCC(C(=O)NC(=O)Nc2ccccc2)CC1 [CBK034865]	94.5629	–
CCN(CC)CCn1c(=N)n(Cc2ccc(C(C)(C)C)cc2)c2ccccc21 [CBK268803B]	50.1283	–
Fc1ccc(CSc2nnnn2-c2ccc3c(c2)OCO3)cc1 [CBK293927]	76.321	–
Clc1ccc(C2NCCS2)c(Cl)c1 (stereo not drawn) [CBK027425]	114.435	–
CC(=O)Nc1ccc(S(=O)(=O)/N=C(/Nc2nc(C)cc(C)n2)Nc2ccccc2C)cc1 [CBK264101]	108.319	–
O=C(Cn1nc2n(c1=O)CCCCC2)NCC(O)c1ccc(F)cc1 (stereo not drawn) [CBK305187]	75.2296	–
COc1ccc(CCNC(=O)N(C)C2CCN(C)C2)cc1 (stereo not drawn) [CBK156019]	94.4131	–

SMILES	% of control remaining [1]	% of control remaining (total inclusion area, 28.5 h, 10 µM, inhibitor)
O=c1[nH]cc(-c2ccc(F)cc2)cc1CNCc1cccc(F)c1 [CBK284697]	79.5043	–
O=C(Cn1cccc(C(=O)NC2CCCC2)c1=O)NCC1(c2ccccc2)CCCC1 [CBK285975]	128.077	–
CCOC(=O)C1(N)CCCC1 [CBK073836C]	41.9051	–
O=C(NCCN1CCOCC1)c1nnc(C(=O)Nc2cccc(Cl)c2)s1 [CBK294405]	91.6871	–
Nc1ncc(-c2cc(C(F)(F)F)cc(C(F)(F)F)c2)nc1NC1CCC(O)CC1 (stereo not drawn) [CBK063808]	97.4571	–
Cc1cnc2[nH]c(C(F)(F)F)c(CN3CCCC(CO)C3)c2c1 (stereo not drawn) [CBK285167]	94.7579	–
CN1CC=C(/C=C/C2=Cc3ccccc3OC2)CC1 [CBK283857]	86.9429	–
COCc1nnc(Sc2ccc(C(F)(F)F)cn2)s1 [CBK115219]	86.8644	–
CCC(CO)Nc1nccnc1-c1ccsc1 (stereo not drawn) [CBK036606]	105.247	–
COC(=O)c1ccc(NS(=O)(=O)Cc2ccccc2)cc1 [CBK028699]	103.722	–
COc1ccc(C(=O)Nc2ccccc2C(=O)N2CCOCC2)cc1Br [CBK269923]	87.3419	–
CC(CN(C)C)C(=O)c1cn(C)c2ccccc12 (stereo not drawn) [CBK015540]	54.0475	–
OCCN(Cc1cccnc1)CC1(c2ccc(Cl)cc2)CC1 [CBK282943]	84.6906	–
Cc1cc(N)cc(C)c1O [CBK012062C]	14.4517	–
O=C(c1cc(C2CC2)on1)N1CCc2ncc(Cl)cc2C1 [CBK284855]	83.1111	–
O=C(NCc1ccco1)NC(=O)c1ccc(Cl)cc1 [CBK269461]	118.536	–
COc1cc(C(=O)N2CCC3(CC2)CC(=O)c2cc(CN4CCN(C)CC4)ccc2O3)cc(OC)c1C [CBK169185]	82.043	–
O=S(=O)(Nc1ccc(N2CCNCC2)nc1)c1ccc(F)cc1F [CBK000022C]	45.3984	–
